{
  "source": "the supplement of paper PMC7826260",
  "note": "This is one part of the list. Each Rep nickase domain was tested in vitro on the same pool of single strands (3 µM enzyme, 1 h, 37 °C); shown is the middle of each 90-letter strand. Numbers give uncut DNA relative to the enzyme-free pool, as log2; uncut sequences lie near 0, cut ones below; no hit call is given. The scaling is to total reads; uncut strands gain when others are lost, and binding without cutting may add a little.",
  "data": [
    {"test_system": "T1, Rep nickase domain of chickpea chlorotic dwarf virus", "T1 sequence (residues 1-124, tag not shown)": "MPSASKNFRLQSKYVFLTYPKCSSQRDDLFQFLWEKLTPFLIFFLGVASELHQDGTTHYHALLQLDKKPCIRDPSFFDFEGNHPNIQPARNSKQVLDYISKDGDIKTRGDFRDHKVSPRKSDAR", "assay": "uncleaved DNA left, log2 of reads against the no-enzyme library (log2 ratio); higher = less cleavage (more negative = more Rep cleavage of the k-mer); sequences stand for … in CTCGTCCG…ACCGGAGA", "description": "(§1)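 A pool of 90-nt single-stranded DNAs with seven random bases just before the constant AC of the nick site (name = the seven bases) was cut by 3 µM recombinant His6-SUMO-tagged Rep nickase domain (300 nM DNA, 50 mM HEPES pH 8.0, 50 mM NaCl, 1 mM MnCl2, 1 h, 37 °C, three replicates). Uncut DNA was amplified and sequenced.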", "values": [
      {"sequence": "AGGAGAG", "uncleaved DNA left (log2)": 0.298},
      {"sequence": "GGCAGTG", "uncleaved DNA left (log2)": 0.283},
      {"sequence": "AGCTTCA", "uncleaved DNA left (log2)": -0.209},
      {"sequence": "GGCACTT", "uncleaved DNA left (log2)": 1.56},
      {"sequence": "ATCCGCA", "uncleaved DNA left (log2)": -0.936},
      {"sequence": "ATTCTGT", "uncleaved DNA left (log2)": -0.329},
      {"sequence": "ACGGACC", "uncleaved DNA left (log2)": 0.662},
      {"sequence": "ACCCTTG", "uncleaved DNA left (log2)": -1.04},
      {"sequence": "GTAAGAT", "uncleaved DNA left (log2)": -0.485},
      {"sequence": "ACGGGAG", "uncleaved DNA left (log2)": -0.243},
      {"sequence": "AAGCGTT", "uncleaved DNA left (log2)": 0.357},
      {"sequence": "ATTTACT", "uncleaved DNA left (log2)": -3.28},
      {"sequence": "ATTTGTG", "uncleaved DNA left (log2)": 0.594},
      {"sequence": "AATGGAA", "uncleaved DNA left (log2)": 1.26},
      {"sequence": "TATCTTC", "uncleaved DNA left (log2)": -0.409},
      {"sequence": "ATCCCCT", "uncleaved DNA left (log2)": -1.33},
      {"sequence": "GCGTAAG", "uncleaved DNA left (log2)": 0.0267},
      {"sequence": "GCTATTG", "uncleaved DNA left (log2)": 0.0813},
      {"sequence": "GATGAGA", "uncleaved DNA left (log2)": 0.363},
      {"sequence": "ACGTCCA", "uncleaved DNA left (log2)": -0.961},
      {"sequence": "CGTGAAT", "uncleaved DNA left (log2)": 0.359},
      {"sequence": "GACTGGT", "uncleaved DNA left (log2)": 0.482},
      {"sequence": "CTCTATC", "uncleaved DNA left (log2)": -0.246},
      {"sequence": "TAGATCA", "uncleaved DNA left (log2)": -1.4},
      {"sequence": "CGGCCCA", "uncleaved DNA left (log2)": -0.153},
      {"sequence": "GGATGTT", "uncleaved DNA left (log2)": 1.23},
      {"sequence": "AGTATGC", "uncleaved DNA left (log2)": -0.297},
      {"sequence": "GTAAATG", "uncleaved DNA left (log2)": 0.27},
      {"sequence": "GTCGGTC", "uncleaved DNA left (log2)": 1.52},
      {"sequence": "CCTCCCG", "uncleaved DNA left (log2)": -0.0678},
      {"sequence": "TTGTTTC", "uncleaved DNA left (log2)": -0.128},
      {"sequence": "CGATTTC", "uncleaved DNA left (log2)": -0.121},
      {"sequence": "TCCTGCT", "uncleaved DNA left (log2)": -1.72},
      {"sequence": "TTTTGGA", "uncleaved DNA left (log2)": -0.361},
      {"sequence": "GGCCACG", "uncleaved DNA left (log2)": -0.0617},
      {"sequence": "GTCACGA", "uncleaved DNA left (log2)": 0.737},
      {"sequence": "CAGTGGG", "uncleaved DNA left (log2)": -0.378},
      {"sequence": "ACAGAGA", "uncleaved DNA left (log2)": 0.478},
      {"sequence": "ATATTCG", "uncleaved DNA left (log2)": 0.502},
      {"sequence": "CTCCGGC", "uncleaved DNA left (log2)": 0.121}
    ]},
    {"test_system": "T2, Rep nickase domain of faba bean necrotic yellows virus", "T2 sequence (residues 1-98, tag not shown)": "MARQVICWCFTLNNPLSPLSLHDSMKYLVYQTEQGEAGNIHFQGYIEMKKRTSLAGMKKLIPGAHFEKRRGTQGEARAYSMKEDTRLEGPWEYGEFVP", "assay": "uncleaved DNA left, log2 of reads against the no-enzyme library (log2 ratio); higher = less cleavage (more negative = more Rep cleavage of the k-mer); sequences stand for … in CTCGTCCG…ACCGGAGA", "description": "as §1", "values": [
      {"sequence": "AGGAGAG", "uncleaved DNA left (log2)": 0.063},
      {"sequence": "GGCAGTG", "uncleaved DNA left (log2)": -0.0332},
      {"sequence": "AGCTTCA", "uncleaved DNA left (log2)": 0.0922},
      {"sequence": "GGCACTT", "uncleaved DNA left (log2)": -0.0592},
      {"sequence": "ATCCGCA", "uncleaved DNA left (log2)": 0.0289},
      {"sequence": "ATTCTGT", "uncleaved DNA left (log2)": -0.0397},
      {"sequence": "ACGGACC", "uncleaved DNA left (log2)": -0.0566},
      {"sequence": "ACCCTTG", "uncleaved DNA left (log2)": -0.0623},
      {"sequence": "GTAAGAT", "uncleaved DNA left (log2)": -0.0325},
      {"sequence": "ACGGGAG", "uncleaved DNA left (log2)": 0.0526},
      {"sequence": "AAGCGTT", "uncleaved DNA left (log2)": -0.154},
      {"sequence": "ATTTACT", "uncleaved DNA left (log2)": -0.2},
      {"sequence": "ATTTGTG", "uncleaved DNA left (log2)": 0.0713},
      {"sequence": "AATGGAA", "uncleaved DNA left (log2)": 0.0232},
      {"sequence": "TATCTTC", "uncleaved DNA left (log2)": -0.0217},
      {"sequence": "ATCCCCT", "uncleaved DNA left (log2)": -0.00464},
      {"sequence": "GCGTAAG", "uncleaved DNA left (log2)": 0.066},
      {"sequence": "GCTATTG", "uncleaved DNA left (log2)": -0.0916},
      {"sequence": "GATGAGA", "uncleaved DNA left (log2)": 0.171},
      {"sequence": "ACGTCCA", "uncleaved DNA left (log2)": -0.15},
      {"sequence": "CGTGAAT", "uncleaved DNA left (log2)": 0.0639},
      {"sequence": "GACTGGT", "uncleaved DNA left (log2)": -0.0055},
      {"sequence": "CTCTATC", "uncleaved DNA left (log2)": -0.338},
      {"sequence": "TAGATCA", "uncleaved DNA left (log2)": -0.000157},
      {"sequence": "CGGCCCA", "uncleaved DNA left (log2)": -0.151},
      {"sequence": "GGATGTT", "uncleaved DNA left (log2)": -0.0657},
      {"sequence": "AGTATGC", "uncleaved DNA left (log2)": 0.0609},
      {"sequence": "GTAAATG", "uncleaved DNA left (log2)": 0.0212},
      {"sequence": "GTCGGTC", "uncleaved DNA left (log2)": -0.014},
      {"sequence": "CCTCCCG", "uncleaved DNA left (log2)": -0.0317},
      {"sequence": "TTGTTTC", "uncleaved DNA left (log2)": -0.253},
      {"sequence": "CGATTTC", "uncleaved DNA left (log2)": 0.0927},
      {"sequence": "TCCTGCT", "uncleaved DNA left (log2)": 0.0528},
      {"sequence": "TTTTGGA", "uncleaved DNA left (log2)": -0.0551},
      {"sequence": "GGCCACG", "uncleaved DNA left (log2)": 0.0243},
      {"sequence": "GTCACGA", "uncleaved DNA left (log2)": -0.0158},
      {"sequence": "CAGTGGG", "uncleaved DNA left (log2)": 0.058},
      {"sequence": "ACAGAGA", "uncleaved DNA left (log2)": 0.0918},
      {"sequence": "ATATTCG", "uncleaved DNA left (log2)": 0.165},
      {"sequence": "CTCCGGC", "uncleaved DNA left (log2)": 0.0304}
    ]},
    {"test_system": "T3, Rep nickase domain of maize striate mosaic virus", "T3 sequence (residues 1-117, tag not shown)": "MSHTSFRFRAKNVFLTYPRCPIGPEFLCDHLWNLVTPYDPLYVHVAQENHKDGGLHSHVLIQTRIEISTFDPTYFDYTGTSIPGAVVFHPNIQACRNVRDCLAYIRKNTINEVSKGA", "assay": "uncleaved DNA left, log2 of reads against the no-enzyme library (log2 ratio); higher = less cleavage (more negative = more Rep cleavage of the k-mer); sequences stand for … in CTCGTCCG…ACCGGAGA", "description": "as §1", "values": [
      {"sequence": "AGGAGAG", "uncleaved DNA left (log2)": -0.426},
      {"sequence": "GGCAGTG", "uncleaved DNA left (log2)": 0.319},
      {"sequence": "AGCTTCA", "uncleaved DNA left (log2)": 0.192},
      {"sequence": "GGCACTT", "uncleaved DNA left (log2)": 2.11},
      {"sequence": "ATCCGCA", "uncleaved DNA left (log2)": -1.23},
      {"sequence": "ATTCTGT", "uncleaved DNA left (log2)": -0.337},
      {"sequence": "ACGGACC", "uncleaved DNA left (log2)": 0.991},
      {"sequence": "ACCCTTG", "uncleaved DNA left (log2)": -1.09},
      {"sequence": "GTAAGAT", "uncleaved DNA left (log2)": 1.74},
      {"sequence": "ACGGGAG", "uncleaved DNA left (log2)": -0.688},
      {"sequence": "AAGCGTT", "uncleaved DNA left (log2)": 0.585},
      {"sequence": "ATTTACT", "uncleaved DNA left (log2)": -1.12},
      {"sequence": "ATTTGTG", "uncleaved DNA left (log2)": -0.522},
      {"sequence": "AATGGAA", "uncleaved DNA left (log2)": 1.47},
      {"sequence": "TATCTTC", "uncleaved DNA left (log2)": -0.641},
      {"sequence": "ATCCCCT", "uncleaved DNA left (log2)": -0.103},
      {"sequence": "GCGTAAG", "uncleaved DNA left (log2)": -0.725},
      {"sequence": "GCTATTG", "uncleaved DNA left (log2)": -0.732},
      {"sequence": "GATGAGA", "uncleaved DNA left (log2)": -0.0862},
      {"sequence": "ACGTCCA", "uncleaved DNA left (log2)": -0.544},
      {"sequence": "CGTGAAT", "uncleaved DNA left (log2)": 0.825},
      {"sequence": "GACTGGT", "uncleaved DNA left (log2)": 1.03},
      {"sequence": "CTCTATC", "uncleaved DNA left (log2)": -0.878},
      {"sequence": "TAGATCA", "uncleaved DNA left (log2)": 0.691},
      {"sequence": "CGGCCCA", "uncleaved DNA left (log2)": 0.22},
      {"sequence": "GGATGTT", "uncleaved DNA left (log2)": 2.02},
      {"sequence": "AGTATGC", "uncleaved DNA left (log2)": -0.926},
      {"sequence": "GTAAATG", "uncleaved DNA left (log2)": -0.0774},
      {"sequence": "GTCGGTC", "uncleaved DNA left (log2)": 1.85},
      {"sequence": "CCTCCCG", "uncleaved DNA left (log2)": -0.848},
      {"sequence": "TTGTTTC", "uncleaved DNA left (log2)": -0.424},
      {"sequence": "CGATTTC", "uncleaved DNA left (log2)": -0.593},
      {"sequence": "TCCTGCT", "uncleaved DNA left (log2)": -1.15},
      {"sequence": "TTTTGGA", "uncleaved DNA left (log2)": -0.683},
      {"sequence": "GGCCACG", "uncleaved DNA left (log2)": -0.192},
      {"sequence": "GTCACGA", "uncleaved DNA left (log2)": 0.798},
      {"sequence": "CAGTGGG", "uncleaved DNA left (log2)": -0.94},
      {"sequence": "ACAGAGA", "uncleaved DNA left (log2)": -0.731},
      {"sequence": "ATATTCG", "uncleaved DNA left (log2)": -0.774},
      {"sequence": "CTCCGGC", "uncleaved DNA left (log2)": 0.0357}
    ]}
  ]
}
